Results as given in PubChem BioAssay AID1508624 (National Center for Advancing Translational Sciences (NCATS), 2021).
The campaign covered roughly 48,000 compounds. About 120 (0.25%) were called active. Not shown: some 4% with an inconclusive outcome. Calls come from the whole dose curve; as a rule, active = well fitted activation curve with a large enough effect; inconclusive = small, poorly fitted or top-dose-only effect, or another doubt; inactive = no such curve, though single readings can be large or run the other way. The list shows a part of the results.

test: Primary qHTS for Identification of Small Molecule Activators of Huntingtin-Antisense Promoter Activity; details: HEK293 HTT-AS promoter firefly luciferase reporter (activity 0% = vehicle and -100% = no light), 24 h; series mostly up to 57.5 µM; activity change, positive = activation: at the top concentration; note: nearly all actives have a fitted effect of over 55% in size
In short: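 Firefly luciferase signal from promoter-reporter HEK293 cells was scaled between vehicle (0%) and zero RLU (-100%). Compounds were tested at final concentrations of up to 57.5 uM over 24 h at 37 degrees C. PTC124 at 50 uM final served as control inhibitor.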

Activity change, positive = activation, inactive:
Cc1ccc(Cn2c(=O)c3cccnc3n(Cc3ccc(C)cc3)c2=O)cc1 -12.8%
Cc1ccc(Cn2c(=O)n(-c3cccc(C(F)(F)F)c3)c(=O)c3c(C)c(C)sc32)c(C)c1 9.26%
Cc1cn(C)c(CC(=O)Nc2cccc(C#N)c2)c1C(=O)O -1.9%
Cc1ccc(CSc2ncc(Cl)c(C(=O)Oc3ccccc3F)n2)cc1 16.8%
Cc1ccccc1OCCn1cc(C(=O)c2ccco2)c2ccccc21 -22.1%
Cc1ccc(-c2nn3c(=O)cc(CN4CCN(C(=O)Nc5cccc(C(F)(F)F)c5)CC4)nc3s2)cc1 4.52%
COc1ccc(OC)c(C2CC(=O)c3c([nH]c(C(=O)OCc4ccc(C)cc4)c3C)C2)c1 (stereo unspecified) -37.7%
Clc1ccc(-c2noc3ncnc(NC4CCCCC4)c23)cc1 -26.3%
Cc1ccc(CCNC(=O)c2cnc3c(-c4ccc(F)cc4)c(C)nn3c2C)cc1 -7.86%
COc1ccc(-c2c(C)c3cc(OC(=O)N4CCOCC4)ccc3oc2=O)cc1OC -6.93%
CC(CNC(=O)c1ccc(Cn2c(=O)c3cccn3c3cccnc32)cc1)c1ccccc1 (stereo unspecified) -22.6%
COc1cc(CNC(=O)c2ccc3nc(Cc4ccccc4)oc3c2)cc(OC)c1OC -44.9%
COc1cccc(C(=O)CC2(O)C(=O)N(Cc3ccccc3)c3ccccc32)c1 (stereo unspecified) -13.4%
NC(=O)Cn1c(=O)n(CCCCCC(=O)NCc2ccc3c(c2)OCO3)c(=O)c2sccc21 -5.59%
COc1cccc(Cn2nnc(C(=O)NCc3ccc(Cl)cc3Cl)c2N)c1 -21.7%
CCc1cccc(NC(=O)Cn2c(=O)n3nc(-c4cccc(F)c4)nc3c3ccccc32)c1 -3.82%
Cc1ccccc1C(=O)Nc1sc2c(c1C(=O)N1CCC(C)CC1)CCC(C)C2 (stereo unspecified) -20%
COc1ccc(NC(=O)c2nnn(CC(=O)Nc3ccc(C)c(C)c3)c2N)cc1OC -40.1%
CCCCCCOC(=O)N=C(N)c1ccc(NCc2nc3cc(C(=O)N(CCC(=O)OCC)c4ccccn4)ccc3n2C)cc1 -23.8%
CCOc1cc2[nH]c(=O)n(CCCCC(=O)N3CCN(c4ccccc4OC)CC3)c(=O)c2cc1OCC -7.09%
COc1ccc2c(c1)c1c(c(=O)n(-c3ccc(OC)c(OC)c3)c(=O)n1Cc1ccc(F)cc1)n2C -11.9%
Cc1cn2c(=O)cc(COC(=O)c3ccc(NC(=O)c4ccccc4C)cc3)nc2s1 -5.69%
Cc1ccccc1CS(=O)(=O)Cc1ccc(C(=O)NCCc2ccc(Cl)cc2)o1 -38.4%
CCOC(=O)C1CCCN(c2c(C(=O)c3ccccc3)cnc3ccc(F)cc23)C1 (stereo unspecified) -14.9%
COc1ccc(NC(=O)Cc2c(C(=O)O)[nH]c3ccccc23)cc1OC -2.62%
CCOC(=O)c1c(C)n(C)c2ccc(O)cc12
